Source: the supplement of paper PMC10338343
± gives the standard deviation. The list shows a part of the results, in another mix than the full data.

Test system: MIWI (PIWIL1) piRISC loaded with piRNA #1 (30 nt)
Assay: pre-steady-state target cleavage rate (min^-1); MIWI and MILI are mouse PIWI proteins and EfPiwi is from a freshwater sponge; tags in brackets are library labels; higher = faster piRNA-guided slicing of the target
Settings: guide: piRNA #1 5'p-UGAGGUAGUAGGUUGUAUAGUAUCCAGAGG; auxiliary factor: 500 nM mouse GTSF1
Procedure, shortened: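 Cleave-'n-Seq: a transcribed, DNA-blocked target RNA library (0.1 nM) was mixed with 1 nM active affinity-purified piRISC carrying one synthetic guide, with or without 500 nM GTSF1 partner protein, in HEPES–potassium acetate buffer at 33 °C for 0–8 or 0–960 min. Uncleaved targets were sequenced and normalised to depth and to weakly complementary targets. Three trials were pooled, and k3 was capped at 0.0001 min^-1. The pre-steady-state cleavage rate came from a burst-and-steady-state fit.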

Row | Sequence | pre-steady-state target cleavage rate
1 | GGUCUGGAUACUAUACAAGCUACUACCUGA | 0.701 ± 0.051
2 | GGAGACCUUACUAUAAAACCUACUACCUCA | 1.16 ± 0.1
3 | GGAGACCUCACUAUACAACCUACUACCUCA | 1.73 ± 0.1
4 | GGAGACCUUACUAUACAACCAUCUACCUCA | 0.0142 ± 0.0048
5 | GCUCUUGGAUACUAUACAACCUACUACCUCA | 2.1 ± 0.1
6 | GGAGACCUAACCUAUACAACCUACUACCUCA | 0.322 ± 0.13
7 | GGUCUGGAUACUUUACAAGCUACUACCUCA | 1.08 ± 0.05
8 | CCUCUGCAUACUAUACAACCUAGUACCUCA | 0.453 ± 0.047
9 | GGAGACCAUACUAUAAACCUACUACCUCA | 0.175 ± 0.023
10 | GCACUGGAAACUAUACAACCUACUACCUCA | 1.82 ± 0.089
11 | GGAGACCUAUCUAUACAACCUACUACGUGA | 0.378 ± 0.036
12 | GGUCUCGAUACUAUACAACCUAGUACCUCA | 0.692 ± 0.069
13 | GGAGUGGAGUACUAUACAACCUACUACCUCA | 1.43 ± 0.12
14 | GGAGUGGAUACUAUACAACCAAGUACCUCA | 0.0356 ± 0.0049
15 | GGACUGGAUACUAUACUACCUUCUACCUCA | 0.219 ± 0.024
16 | GCUCUGGAUACUAUACUACCUACUAGCUCA | 1.09 ± 0.11
17 | GGAGACCUUACUAUCAACCUACUACCUCA | 0.284 ± 0.03
18 | GGACUGCAUACUAUACAACCUACUACCACA | 0.519 ± 0.066
19 | GGAGACCAUUCUAUACAACCUAGUACCUCA | 0.538 ± 0.052
20 | GGAAUGGAUACUAUACAACCUACUACCUCA | 1.86 ± 0.099

Row | Sequence | pre-steady-state target cleavage rate
21 | GGAGACCAUUCUAUACAACCUACUUCCUCA | 0.225 ± 0.019
22 | CCUCUGGAUACUAUACAACCUAGUACCUGA | 0.035 ± 0.012
23 | GGAGACCAUACUAUACAAGCUACUAGCUCA | 0.372 ± 0.056
24 | GGAGAGGAUAUAUACAACCUACUACCUCA | 1.21 ± 0.064
25 | GGAGACCUUACUAUUACAACCUACUACCUCA | 0.712 ± 0.075
26 | GGAGAGGAUACUAUUCAAGCUACUACCUCA | 0.436 ± 0.03
27 | GGAGACCUAACUAUUGAACCUACUACCUCA | 0.00633 ± 0.0026
28 | GGAGACGAUACUAUAGCAACCUACUACCUCA | 0.84 ± 0.093
29 | GGACUCGAUACUAUACAAGCUACUACCUCA | 1.09 ± 0.061
30 | GCUCUGGAUACUUUACAACCAACUACCUCA | 0.124 ± 0.015
31 | GCUCUGGAUACUAUAGAACCUACAACCUCA | 0.00811 ± 0.0027
32 | GGAGUGGAUACUAUAGAACCUACUACCUGA | 0.104 ± 0.022
33 | GGAGACCAUACUAUACAAGGUACUACCUCA | 0.133 ± 0.013
34 | GGAGACCUAACAUACAACCUACUACCUCA | 0.0132 ± 0.0087
35 | CCUCUGGAAUGUAUACAACCUACUACCUCA | 0.505 ± 0.029
36 | GGAGACCUAUCUAUUCAACCUACAACCUCA | 0.0157 ± 0.0039
37 | GGAGACCAUACUAUACAACCUUCUACCACA | 0.521 ± 0.03
38 | GGAGUGGAUACUAAACAAGCUACUACCUCA | 0.881 ± 0.04
39 | GGAGUGGAUACUAAACAACCUACUACCACA | 0.55 ± 0.046
40 | GGAGAGGAUACUAUACAACCUACUGCCUCA | 0.913 ± 0.066
